Assay results published in the antibiotic and cytotoxicity screens of Wong et al. (2023).
Some of the results follow.

What was measured:
HSkMC = human skeletal muscle cells; assay: cytotoxicity call (relative viability < 0.9); conditions: 10 µM
HepG2 = assay: cytotoxicity call (relative viability < 0.9); conditions: 10 µM
S. aureus RN4220 = assay: growth inhibition call (relative growth <= 0.2); conditions: 50 µM

Row | SMILES | cytotoxicity call (HSkMC) | cytotoxicity call (HepG2) | growth inhibition call (S. aureus RN4220)
1 | CCc1cnc2c(c1OC)c(=O)[nH]c(=O)n2C | inactive | inactive | inactive
2 | CO[C@H]1CN(C)C(=O)c2cc(NC(=O)Nc3ccc(Cl)cc3)ccc2OC[C@H](C)N(C(=O)Nc2c(C)noc2C)C[C@@H]1C | inactive | inactive | inactive
3 | O=C(C[C@@H]1CC[C@@H]2[C@H](COC[C@@H](O)CN2S(=O)(=O)c2ccccc2F)O1)NCc1ccccc1Cl | inactive | inactive | inactive
4 | C[C@H]1CN([C@@H](C)CO)C(=O)c2cc(NC(=O)Nc3cccc4ccccc34)ccc2O[C@H]1CN(C)S(=O)(=O)c1ccc(F)cc1 | inactive | inactive | inactive
5 | COc1ccc(COC[C@]23N=C4Sc5ccc([N+](=O)[O-])cc5C(=O)N4[C@H](c4ccccc4O2)[C@H]3COC(=O)c2ccccc2)cc1 | inactive | inactive | inactive
6 | COc1cc(/C=C/C(=O)c2c(NCCc3ccccc3)sc(-c3ccc(O)c(OC)c3)cc2=O)ccc1O | inactive | inactive | inactive
7 | C[C@@H]1CN([C@@H](C)CO)C(=O)c2cc(NC(=O)Nc3cccc4ccccc34)ccc2O[C@@H](C)CCCCO[C@H]1CN(C)C(=O)C1CCCCC1 | inactive | inactive | inactive
8 | C[C@@H]1CN([C@@H](C)CO)C(=O)c2cc(NS(=O)(=O)c3cn(C)cn3)ccc2O[C@@H](C)CCCCO[C@H]1CN(C)C(=O)CCCN(C)C | inactive | inactive | inactive
9 | COc1ccc(S(=O)(=O)Nc2cccc3c2O[C@@H](CN(C)S(C)(=O)=O)[C@@H](C)CN([C@H](C)CO)C3=O)cc1 | inactive | inactive | inactive
10 | C[C@@H]1CN([C@H](C)CO)C(=O)c2cc(NS(=O)(=O)c3ccccc3)ccc2O[C@H]1CN(C)S(=O)(=O)c1ccc(F)cc1 | inactive | inactive | inactive
11 | COc1ccc(NC(=O)Nc2ccc3c(c2)[C@H]2C[C@@H](CC(=O)NCc4ccccn4)O[C@H](CO)[C@H]2O3)cc1 | inactive | inactive | inactive
12 | CC(C(=O)O)c1ccc2c(c1)Cc1cccnc1O2 (stereo not drawn) | inactive | inactive | inactive
13 | C[C@@H]1CN([C@@H](C)CO)C(=O)Cc2cc(NC(=O)Nc3cccc4ccccc34)ccc2O[C@@H]1CN(C)Cc1ccccc1 | inactive | active | inactive
14 | C[C@H](CO)N1C[C@H](C)[C@H](CN(C)Cc2ccc(C(=O)Nc3ccccc3N)cc2)Oc2c(NC(=O)NC3CCCCC3)cccc2C1=O | inactive | active | inactive
15 | CC(C)NC(=O)Nc1ccc2c(c1)C(=O)N([C@H](C)CO)C[C@@H](C)[C@H](CN(C)Cc1ccccc1)OCCCC[C@H](C)O2 | inactive | inactive | inactive
16 | C[C@@H]1CN([C@@H](C)CO)C(=O)c2cc(NC(=O)CCCCCC(=O)Nc3ccccc3N)ccc2O[C@H]1CN(C)Cc1ccc(C(F)(F)F)cc1 | inactive | inactive | inactive
